Reference: the supplement of paper PMC10600219
Where a name gives a salt, the structure may show the parent alone. The full ranking holds about 2,800 compounds; the median of “cell viability relative to vehicle” is about 0.98, and the lowest 2% start at about 0.45. The list shows a part of the results.

Each compound was assayed on NCI-H2228 alectinib-DTP (assay: cell viability relative to vehicle (fraction of vehicle); NCI-H2228 is an ALK-positive lung cancer line and DTP means drug-tolerant persister; higher = less growth inhibition). Conditions: 100 nM; treatment time 6 days.
Outline: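 Drug-tolerant persister NCI-H2228 cells, produced by 13 days in 1000 nM of a targeted drug, and their parental counterparts were seeded into 384-well plates and, the following day, given the 3114-agent TargetMol anti-cancer compound library at 100 nM or DMSO vehicle. After 6 days, the CellTiter-Glo 3D Cell Viability Assay was used to read ATP. Each entry reports viability compared with vehicle-treated cells.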

Structure (SMILES)	cell viability
Cn1cc(-c2nc(N[C@@H]3CCCC[C@@H]3N)c(F)c3c2C(=O)NC3)cn1 [TAK-659 hydrochloride]	1
CC1CCC2(OC1)OC1CC3C4CCC5CC(O)CCC5(C)C4CCC3(C)C1C2C (stereo not drawn) [Spirostan-3-ol]	1.11
C[C@H](N)[C@H](O)c1cccc(O)c1 [Metaraminol bitartrate]	0.877
Clc1ccc(C(c2c[nH]c3ccccc23)c2c[nH]c3ccccc23)cc1	0.929
CC(C)OC(=O)C1=CN(C(=O)c2ccc(F)c(F)c2)CC(C)(C)c2c1[nH]c1ccccc21 [Turofexorate Isopropyl]	0.847
CN(CCNc1ccnc2cc(Cl)ccc12)CCNc1ccnc2cc(Cl)ccc12	0.979
O=C(/C=C\n1cnc(-c2cc(C(F)(F)F)cc(C(F)(F)F)c2)n1)N1CC(F)(F)C1	0.774
CC(C)(C)[N+]([O-])=Cc1ccc(S(=O)(=O)O)cc1S(=O)(=O)O	0.951
CC(=O)OC(C)(C)CCC(=O)[C@](C)(O)[C@H]1[C@H](O)C[C@@]2(C)[C@@H]3CC=C4[C@@H](C[C@H](O)[C@@H](O)C4(C)C)[C@]3(C)C(=O)C[C@]12C [Cucurbitacin IIA]	1.07
O=C[C@H](O)[C@@H](O)[C@H](O)[C@H](O)CO[C@H]1O[C@H](CO[C@H]2O[C@H](CO)[C@H](O)[C@H](O)[C@H]2O)[C@H](O)[C@H](O)[C@H]1O [Manninotriose]	1.14
C[C@]12CC[C@@H]3c4ccc(OC(=O)c5ccccc5)cc4CC[C@H]3[C@@H]1CC[C@@H]2O [Estradiol benzoate]	1.15
Cc1ccc(F)c(NC(=O)Nc2ccc(-c3cccc4[nH]nc(N)c34)cc2)c1 [Linifanib]	0.881
CC(=O)OC(C)OC(=O)C(C)c1ccc(-c2ccccc2)c(F)c1 (stereo not drawn) [Flurbiprofen Axetil]	0.965
CC[C@@H](C)Nc1cc(C(=O)N[C@H]2C[C@H]3CC[C@@H](C2)N3c2ccc(C(=O)C3CC3)cn2)c(C)cc1C(N)=O	0.497
CN(c1nccc(=O)[nH]1)C1CCN(c2nc3ccccc3n2Cc2ccc(F)cc2)CC1 [Mizolastine]	0.895
OCCN(CCO)c1nc(N2CCCCC2)c2nc(N(CCO)CCO)nc(N3CCCCC3)c2n1 [Dypyridamole]	0.968
CC[C@H](CO)Nc1nc(NCc2ccccc2)c2ncn(C(C)C)c2n1 [Roscovitine]	0.956
CCn1c2ccccc2c2cc(CNCc3ccccc3OC)ccc21 [HLCL-61 hydrochloride]	0.954
Cc1cccc(CC(=O)N2CCc3c2ccc(-c2cn(C)c4ncnc(N)c24)c3F)n1	1

Structure (SMILES)	cell viability
C[C@@H]1C[C@H]2[C@@H]3CCC4=CC(=O)C=C[C@]4(C)[C@@]3(F)[C@@H](O)C[C@]2(C)[C@@]1(O)C(=O)COP(=O)(O)O [Dexamethasone Sodium Phosphate]	0.734
COc1ccc(-n2c(SCCCN3C(=O)c4cccc5cccc(c45)C3=O)nnc2-c2ccncc2)cc1	0.898
Cc1c(-c2cnccn2)ssc1=S [Oltipraz]	1.01
Cc1ccc(=O)n(-c2ccccc2)c1 [Pirfenidone]	0.838
N#Cc1cc2cc(CN3CCC(Nc4ncnc5sc(CC(F)(F)F)cc45)CC3)ccc2[nH]1	1.04
Nc1c2ccccc2nc2ccccc12 [Aminacrine]	1.01
CNc1nc(-c2cccc(NC(=O)c3ccc(C(=O)OC)cc3)c2)c2cc(OC)c(OC)cc2n1 [Lotamilast]	1.09
CCN1CCN(Cc2ccc(C(=O)Nc3ccc(C)c(Oc4ccc5c(c4)CC(=O)N5)c3)cc2C(F)(F)F)CC1	1.02
N[C@@H](Cc1cc(I)c(Oc2ccc(O)c(I)c2)c(I)c1)C(=O)O [Liothyronine sodium]	1.02
N[C@@H](Cc1cc(I)c(Oc2ccc(O)c(I)c2)c(I)c1)C(=O)O [O-(4-Hydroxy-3-iodophenyl)-3,5-diiodo-L-tyrosine]	0.898
COc1cc(N2CCOCC2)ccc1Nc1ncc(F)c(Nc2ccccc2NS(C)(=O)=O)n1	1.08
O=C(Oc1cc(S(=O)(=O)c2ccccc2)ccc1[N+](=O)[O-])c1ccc(Cl)cc1	1.07
COc1ccc(C2CC(=O)c3c(O)cc(OC4OC(COC5OC(C)C(O)C(O)C5O)C(O)C(O)C4O)cc3O2)cc1OC (stereo not drawn) [Methyl hesperidin]	1.04
NC(=O)c1ccc(OCCCN2CC3CCCC3C2)cc1 (stereo not drawn)	1.11
CCOC(=O)/C=C/c1ccc(O)c(O)c1 [Ethyl caffeate]	1.02
Cc1cc(CN2CCN(c3c(Br)cnc4nc(-c5ccc(N6CCN(C)CC6)cc5)[nH]c34)CC2)no1	0.905
C=CC(=O)N1C/C(=C\c2ccc([N+](=O)[O-])cc2)C(=O)/C(=C/c2ccc([N+](=O)[O-])cc2)C1	1.01
CNc1nc(Nc2cn(C(C)(C)C#N)nc2C)ncc1C(F)(F)F	1.01
CC(C)(O)CNc1ncc(-c2ccnc(Nc3ccnc(Cl)c3)n2)c(CC2CC2)n1	0.904
